Experimental data reported in the supplement of paper PMC11417369.
This is one part of the list.

system: PfAP2-HC AP2 domain (GST-tagged); assay: gcPBM binding intensity (ln(normalized median fluorescence intensity)); higher = stronger DNA binding
Procedure, shortened: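 The binding buffer was 1× PBS containing 1% milk, 0.2 mg/ml BSA, 0.5% salmon testes DNA and 0.03% Triton X-100. In it, GST-tagged P. falciparum DNA-binding domains expressed in E. coli were applied for 1 h to an Agilent 4 × 180k array of primer-extended double-stranded 36-bp intergenic genomic probes plus negative controls. Binding intensity, read with Alexa488 anti-GST antibody and a 488 nm scan, is the highest Masliner-normalised natural-log median intensity across replicate spots of either probe orientation.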

Sequence | gcPBM binding intensity (ln)
ACATATGACTATAATACACACTTGTATTATTAATAT [CACACA_site6951] | 9.81
TTATAGAGCTTATTCACACATACATATGTATTTATA [CACACA_site5775] | 9.87
ATAATAAAAATATACTGTACATTTGTAAATTCTTTT [XGTACX_site4655] | 9.6
TAAAACATATAAAGGTGTACGCCTTTTTGTATCAAT [XGTACX_site6064] | 9.67
TATATTTGTTGACACACACACAAAAAAAAAAAAAAA [CACACA_site7211] | 10.1
GTCTACTACACTAAATGTACAAGAAAAAAGAAAAAA [XGTACX_site4660] | 9.48
AAGAGTAAAATATGGTTGCACTAAAAATATATATTT [GTGCAC_site9484] | 9.55
CTTAATATATGTGGCACACATGTGGAGTCCTATTAA [CACACA_site4281] | 9.75
AAAAAAATATTAATGTGTACATAATAATAACATATA [XGTACX_site8319] | 9.78
TATAAAATTCTGACTTGTACATGTGAAAAATAATTA [XGTACX_site1396] | 9.53
TATATATATATATAATGTACACATTTTTATAACTAT [XGTACX_site5714] | 9.6
AAAGATGGAAAAAAAAATTTGTGTGTTGAAAGATAT [GTGCAC_negctrl_site19] | 9.69
AAAATACAATTTCTAGCACACAAAATATTATTATAA [CACACA_site9056] | 9.72
GCGTTGTTTTTAAAAAGTACATTTTTATATAAGTTA [XGTACX_site8780] | 9.63
TTGGTGATATTTTTCTCACACATTTACCAGAGATGT [CACACA_site4684] | 9.7
TTTGTTTTTTTGAGAGTGCAATATATATAAAAAGGG [GTGCAC_site9691] | 9.31
CATAATAAGTATAACGTTAGTTACAAACAGCTTGTT [CACACA_negctrl_site937] | 9.76
TATTATTCAAAATTTGTGCACAAAATTAAAGGAACA | 9.82
AAAATAATGTATATAGTGCAAATGAAAACGAAAAAA [GTGCAC_site9455] | 10.1
TTTTTAAATAAATGTTTTTATTATATACATATCAAT [TGCATGCA_negctrl_site423] | 9.62
TATTTATATATTTATGCATGTTATAGGCAAAAATGT [TGCATGCA_site397] | 9.51
TATATTGATGATGATAGTACGTATGAATACAAAAAA [XGTACX_site4] | 9.76

Sequence | gcPBM binding intensity (ln)
GTAGATATTTATTGAGTGCATGTTATAAAGGGAAAA [GTGCAC_site9481] | 9.69
TTTTTATTTTTTTACAGTACATAAAATAAATAAATA [XGTACX_site6596] | 9.05
TTTTTTTTATGGAAACGTACATACATACATTAAAGA [XGTACX_site7401] | 9.31
AATTATTTATTGAGAGTGCAACAAATTATTTCAAAT [GTGCAC_site9461] | 9.35
ACATTTTAAATACGATGTACTTGAGTTTTTTTTAAA [XGTACX_site5833] | 9.47
CACCCACCCAGACACACACACACACCCCCACCCATA [CACACA_site367] | 11.6
AAGATGATAAAATATGTACACACAGTTTATACATTT [CACACA_site9341] | 9.83
TTATATATTAAGAAATGTACGAAAAAAAAAATTATA [XGTACX_site3893] | 9.45
AAAAAAAATTATATATGTACTTATTAATCCTTTTAT [XGTACX_site1387] | 9.62
TATAATAATAATAATAATAATAATAATAATAATAAT [CACACA_negctrl_site905] | 9.48
CGCATAAAGACAAGAACACACATATAGATTGTAGTA [CACACA_site3693] | 9.68
GAAATAAAAGATGGTTGTACACCGTTTTCTCATATA [XGTACX_site5368] | 9.57
TACATATATGATAAAAGTACATATAAATATACATAA [XGTACX_site3804] | 9.73
TATATGAATAAACATTGTACGTAAATATTAACTATC [XGTACX_site543] | 9.7
AAAGAGAACATAAGTACACACATGTTCTTTTAGTAA [CACACA_site2824] | 9.76
AAAAAAAAAAAAAAAACACACAAAAGCAAGAAAAAC [CACACA_site3198] | 10.3
AAAGTAAAAACACATACATGCATATACACATATAAC [TGCATGCA_site341] | 9.87
AATAGGAAAACCTATACACACTTTAAAAAAAATATA [CACACA_site4977] | 9.59
ATAAATATGTATTGCTGTACATATATATAAATTATC [XGTACX_site8411] | 9.68
TCAATAAGATTATAAAGTACTTTTGAAGATATTATA [XGTACX_site7489] | 9.45
TTTCTTATTTTTTTCACACACTAAACATTTCAAATG [CACACA_site5259] | 9.9
AAATATTTAAATATTATGTATGATTATATATATATA [CACACA_negctrl_site590] | 9.5

Sequence | gcPBM binding intensity (ln)
AAATAAATAAATAAATGTACACATATATATATATAT [XGTACX_site7787] | 9.68
TATATATTTAGTTAGTGTACAAGTTATTTAGTAGTT [XGTACX_site5133] | 9.68
TCTTTTAACAAATAATAAGCTAATTTATATTATTAT [GTGCAC_negctrl_site655] | 9.42
AAAAAAATAATGTATATATAAATTTATTTACATATG [GTGCAC_negctrl_site107] | 9.53
TAAAAAATAAGATATACACACATATATTTATTTATA [CACACA_site7158] | 9.67
CAAATAAATTAAAGGTGTACTTTTATAGTTACGACA [XGTACX_site3926] | 9.56
CATATTTTCTTGTGTACACATTTATTTTATACTATA [CACACA_site6032] | 10.2
TAAAAAATTTTCGCGTGTACGCAAGAAAAAAAAAAT [XGTACX_site3058] | 9.59
TTTTTGCCATATTACACACACACATGGAAACCCCCT [CACACA_site4994] | 10.4
ATATCCATAATAAAAACATGCAACAGAAAAAAAAAA [TGCATGCA_site497] | 9.82
AAGAGAAATATATATTGTACAATAATTTTATTTGGT [XGTACX_site7642] | 9.57
TATATATTAATATTTACACACATGCGCACCCATAAA [CACACA_site2410] | 9.84
ATTTTTGTTATTACATGTACCCATAATTATTATTAA [XGTACX_site3558] | 9.81
ACCGTGGGAGGACACACACACACACCCACATATATA [CACACA_site4339] | 10.8
TATTTATATTCCTTTACACACTCCATCTTATATCCA [CACACA_site3604] | 9.91
AACAATTATTTGTCGACACACGTATATGTTATTTAG [CACACA_site5046] | 10.2
ACAAAAAAATGAAAAGAAAAAGATATACCCCAATAT [CACACA_negctrl_site509] | 9.84
TATTAATTAAAAAAATGTACATAATTATAAATTTTT [XGTACX_site7994] | 9.45
TACGGTTGTTTATTTTGTACGTAAAAAATATATTAT [XGTACX_site8393] | 9.7
TAATATACATATATATGTACATATATATATATATAT [XGTACX_site2684] | 9.72
TTCCAAAAAATTATTACACACATATGAGCACATATA [CACACA_site4543] | 9.74
ATATTATTCTTATATTCACACAGTTTATATTTCCGT [CACACA_site5653] | 9.88

Sequence | gcPBM binding intensity (ln)
AAATTACATACACGCGCACACACAAAAAAAAAAAAA [CACACA_site1335] | 10.8
TTAAAAAATTATTGTAGTACATAGGAAATGAAAAAA [XGTACX_site155] | 9.63
TAAATTAAATATTATAAACACACATATATATTATTT [CACACA_site8189] | 9.67
ATATAAATAAATACAACACACATGTCATATCTAAAT [CACACA_site7533] | 9.94
AAAAAAAAAAAATGAGCACACATAAATAAAAACAAA [CACACA_site8447] | 9.87
TATATACATAAAATTTGTACATATATATATATATAT [XGTACX_site3214] | 9.83
TATTATATCTTATATGTATATTCCCACAAATTATAT [GTGCAC_negctrl_site362] | 9.59
AATATATAAACACGTACACACACATATATGTATATA [CACACA_site9168] | 10.3
AATTTAAATATTTGTTGTACGTATTTATATATTCTT [XGTACX_site3623] | 9.79
CATGCCGTTAAATTATGTACTTATTATTTTAATATG [XGTACX_site4209] | 9.64
ATAATATATAAACACACACACATATATAAATACATT [CACACA_site4466] | 10.5
TGGCAAAATAGGCACACACACATATACATATATATT [CACACA_site1059] | 10.3
TATATAATTAAAATAACACACATATATAAAAATATA [CACACA_site2990] | 9.94
ATATTATAGTATATAACACACATTTTTCATAACACT [CACACA_site6331] | 9.83
TTTTTTTCTTTTTGAGGTACGCATTATTTTATTTGT [XGTACX_site6996] | 9.6
ATAATTTGATGGTTAACACACATATAGATTATAGAT [CACACA_site7200] | 9.86
TTATTATATATATCTCGTACGTGTATACGCCTACCA [XGTACX_site8375] | 9.5
TGTTATATTTCAAATTGTACTAATCTAATTAATAAA [XGTACX_site604] | 9.18
AAAAAAATGAAACACACACACACATATATATATATA [CACACA_site1043] | 10.4
ACAAAGTTTATAGAACGTACATACTTACACATATTT [XGTACX_site556] | 9.73
AAACAATTACACATATGTATGTATATATATATATAT [TGCATGCA_negctrl_site536] | 9.68
TTGATATTTTTTTTATGTACACATGTTCATATTTTT [XGTACX_site8095] | 9.86
